The other results are listed elsewhere or left out. At the low end of the ranking the order means little.
What follows are sequences tested on MYC (p64) + MAX (p21), in MYC:MAX (assay: protein-binding microarray (anti-MAX antibody)). Details: PBM: 15 mM Tris-HCl pH 7.5, 100 mM KCl, 0.075% NP40, 7.5 mM beta-mercaptoethanol, 375 ng/ul BSA, 8 ng/ul poly(dA-dT):(dA-dT), 550 ng complex, 60 min, room …; high values mean tight binding; double strand, one strand shown; sequences stand for … in CCGGC…TTAATAGCTAAGATTACTATATCGACG.

Sequence	binding signal (log2 normalized fluorescence)
TGATATGGGGTA	0.0454
TGAAAGCCAGTA	-0.0231
TGATGGTCTGTA	0.179
TGATGGGACGTA	0.0887
TGAGACGCGGTT	0.131
TGATTGCTTGTA	-0.0473
TAAGACGTGGTA	0.411
TGAGAAGCTGTA	-0.115
TGAGGTCCTGTA	0.0181
TGAGATTTTGTA	-0.367
TGATGGTAAGTA	0.122
TGATTATCGGTA	-0.14
TGATTAGGTGTA	-0.194
TGGCACTTTGTA	0.0131
TGAATAAAGGTA	-0.0629
TGAATTCTAGTA	-0.092
TGAGCAGCAGTA	0.0402
TTAAAAGTGGTA	0.166
TGATACGCCGTA	0.0846
TGACTTCCTGTA	0.0222
TGACCGCGCGTA	0.489
TGACGATGCGTA	0.282
TGATGGCACGTA	0.319
TGAACCCCCGTA	0.133
TGATAACGAGTA	0.261

Sequence	binding signal (log2 normalized fluorescence)
CCGCTTAATTTC	-0.0443
TGACGAGTGGTA	0.147
TGAGGCCCGGTA	-0.103
TGAACCACAGTA	0.183
TGATACTGTGTA	0.122
TGATAATGAGTA	-0.000498
TGATTGTTGGTA	-0.114
TGATCTTCTGTA	-0.129
TGACTATTAGTA	-0.115
TGAAACGTTGTA	0.435
TCGGACGTGGTA	0.304
TGACGACTAGTA	0.163
TGAACCGTGGTC	0.295
AAGGGTTTTCTA	0.201
TGACATAGAGTA	0.00694
CTTACCACCCAG	0.395
TGATTAGATGTA	-0.28
TGACCCAGCGTA	-0.0202
TGATAGCCCGTA	-0.0286
TGAAAGAGGGTA	0.053
TGAACAGGGGTA	0.32
TGACTACCAGTA	0.0544
TGACACGTGATT	0.626
TGATTTGGTGTA	-0.055
CGTTTAGCCGTC	-0.449

Sequence	binding signal (log2 normalized fluorescence)
TGAAGGCTGGTA	-0.146
TGATCGTCCGTA	-0.0196
TGAGAACATGTA	0.438
TGAGGATCCGTA	-0.1
TGATTCTTGGTA	-0.188
TGAGTCAACGTA	0.0142
TGATAATGTGTA	0.181
TGAATTATAGTA	-0.0472
TGATTGGAGGTA	-0.0145
TGAGGACTCGTA	0.0239
TGATGCCAAGTA	-0.0101
TGACGCGTTGTA	0.37
TGAAGTATAGTA	-0.0762
TGATACGTAGTA	-0.252
TGAAAGTGAGTA	0.0332
TGAGGTACGGTA	0.134
TGAAGGTCTGTA	-0.109
TGATATTTCGTA	-0.108
TTACACGTGGTT	0.721
AGCTGGATACTC	0.155
TGAAAAATTGTA	-0.139
TGAGAGTCTGTA	-0.0773
TGACGTCTTGTA	0.0699
TGACCCATTGTA	0.00975
TGAGCTTATGTA	0.0336

Sequence	binding signal (log2 normalized fluorescence)
TGACTAGAAGTA	-0.0985
TGACAGTAGGTA	0.0916
TGACCGAGTGTA	0.203
TGACGCTCCGTA	0.159
TGGCACCTGGTT	0.342
TGAACTGCCGTA	-0.0474
GCGCACGTGGTA	0.813
TGACAAACTGTA	0.119
TGAGTCCTGGTA	-0.105
TGATCACAAGTA	0.151
TGATTTTTTGTA	-0.164
CGACACGTGTTA	0.999
TGAGCGTAGGTA	-0.0841
TGAGGGTGGGTA	0.446
TGAGACGGGGTA	0.303
TGAGCGAGAGTA	-0.00783
TGATCGAATGTA	0.0168
TGATGTTATGTA	-0.0198
TGAGTGATGGTA	0.199
TGAGCACGTGTA	0.769
TGATCGGAAGTA	-0.0273
TGAACACGCGTA	0.448
TGACAAGGCGTA	0.0204
TGAAAACTAGTA	-0.0565
TGAACTGGTGTA	0.122

Sequence	binding signal (log2 normalized fluorescence)
TGATTCATTGTA	0.0737
TGATGGTGTGTA	0.317
TGAGCGCTCGTA	0.0385
TGAGTTTTGGTA	-0.201
TGACTTGACGTA	0.101
TGACAATACGTA	0.229
TGAGCTGGCGTA	-0.00689
TGATCGGATGTA	0.0998
TGACGATGAGTA	0.0347
TGATAGCTCGTA	-0.122
TGAATACACGTA	0.295
TGAAACGTGGGA	0.648
TGATGAGACGTA	-0.0198
TGACACTCGGTA	0.448
TGAGGTAGAGTA	-0.164
TGAACTCCAGTA	0.0204
TGACGCTTAGTA	0.169
TGACCAGCAGTA	0.146
TGCCACCTGGTA	0.461
GGACACGCGGTA	0.807
TGATAGGCGGTA	-0.217
TGATGCACGGTA	0.253
TGACACGTGGAC	0.734
TGATGCGAGGTA	0.373
TGACTATACGTA	0.0059

Sequence	binding signal (log2 normalized fluorescence)
TGACGGGTTGTA	0.0959
TGACACCTGGGA	0.49
TGACCCCATGTA	0.544
TGATACGTGGCA	0.305
GTAGGTAAATCA	-0.0998
TGAACTAACGTA	0.103
TGAAAGGGGGTA	0.83
TTCGTCCAAGGC	-0.0761
TGATGCCTGGTA	0.0849
TGAATTTTCGTA	-0.0241
TGATCGTAAGTA	-0.144
TGAGGGATAGTA	0.0576
TGACCCTTCGTA	-0.0205
TGACACGTTATA	0.451
TGACCCGTGGTC	0.399
TGATCTACAGTA	-0.0994
TGACCCACCGTA	0.288
TGACATACTGTA	0.287
TGATGGAAAGTA	0.164
TGATCAGCGGTA	-0.0394
TGACGGATGGTA	0.302
TGACCTGTAGTA	0.206
TGAAGAACGGTA	-0.00293
GGCCACGTGGTA	0.783
TGACATAATGTA	0.057

Sequence	binding signal (log2 normalized fluorescence)
TGATGAGGCGTA	-0.125
TGAGGAATTGTA	-0.116
TGATGCGATGTA	0.156
TGACGACCCGTA	0.383
TGATTTGGGGTA	0.096
TGAAAAAAGGTA	0.0166
TTGCACTTGGTA	0.318
TGACTTGTTGTA	0.106
TGAGTAGTTGTA	0.0211
TGAGGCTCAGTA	0.135
TGAAAAGCTGTA	0.155
TGAGAGCTGGTA	-0.00588
TGAAAACGAGTA	0.118
TGATTGCTCGTA	0.0285
TGACCAACAGTA	0.114
TGAAGCGATGTA	0.265
TGAGCCCTTGTA	-0.0794
TGGGTCGTGGTA	0.0754
TGAGCAATAGTA	0.0885
TGACTTGTGGTA	0.286
TGACATATAGTA	-0.0684
TGAGGCCGTGTA	0.155
TGAGTAATGGTA	0.0707
TATCACGTGGGA	0.804
TGAGGGCCCGTA	0.0858

From publication PMC5515408
